Sequences and labels used below:
B1: CPEB3 Ribozyme (parent)
chain: UAACAGGGGGCCACAGCAGAAGCGUUCACGUCGCAGCCCCUGUCAGAUUCUGGUGAAUCUGCGAAUUCUGCUGUAUAUCUC

From the RNAGym collection of RNA variant scans (doi:10.1093/nar/gkz1192) come the findings set out here.

Read counts are not given, so values of variants with three or more changes are uncertain.

In this data set the parent is B1. The data set is described as follows: self-cleavage, relative activity (ratio to wild type); higher = more cleavage; in vitro, sequencing. In short, it runs like this:
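After error-prone PCR and barcoding, CPEB3 ribozyme mutant libraries were transcribed with T7 RNA polymerase at 37°C for 5 hours, then given 15 min with DNase I before an EDTA stop, and they cleaved during both steps. Reverse transcription with template switching preceded Illumina sequencing. Relative activity divides a variant's cleaved/total read fraction by the unmutated ribozyme's. At least 5 reads were required per variant, and three batches were averaged.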
For A18U U41C G52C, the self-cleavage was 0.33.

Take A18U A45G A56U A57G: the self-cleavage worked out at 0.06.

For the variant A18G U54C A64G, the self-cleavage came to 0.52.

For A18G U74G A75G, the self-cleavage was determined as 0.84.

On to A18U A47U U48C U51C A77C, for which the self-cleavage is 0.07.

In the case of A18G U26C U31A C44U A45G C81U, the self-cleavage amounted to 0.03.

For G19U U72A U76C, the self-cleavage is 0.28.

For A18U A21G C62U, the self-cleavage turned out to be 0.07.

On to A18U A21G U76A, for which the self-cleavage came to 0.26.

For the variant G19U G24A A28G A45G U69C A77G, the self-cleavage is 0.08.

In the case of G19U U41A A77G, the self-cleavage is 0.42.

Consider A18U U31C U54C G55U U66C, for which the self-cleavage worked out at 0.1.

On to A18G U43A U69C, for which the self-cleavage turned out to be 1.22.

As to A20C A57G U78A, the self-cleavage stood at 0.03.

With G19A U26A A56U U60A U66C U69C, the self-cleavage came out at 0.08.

As for A18U A57G U78C, the self-cleavage was 0.17.

For the variant A20C A21G U60C, the self-cleavage turned out to be 0.06.

A20C C44A U72C: the self-cleavage was determined as 0.23.

A18G U74C U76C: the self-cleavage came to 1.17.

On to A18U A20U A56G, for which the self-cleavage is 0.12.

As to G19A U41A A56U, the self-cleavage was found to be 0.16.

Take A18G U26C C71A: the self-cleavage is 0.1.

Turning to A18U U60C A75G, the self-cleavage stood at 0.58.

Turning to A18G U43C A56G, the self-cleavage was 0.25.

With G19C U25C U26C, the self-cleavage was 0.34.

With A18G U26A U60A G63A, the self-cleavage was found to be 0.16.

With A18U A35G U54C C59G A65G U66C, the self-cleavage was 0.25.

Turning to A18U U41C A65G U67A U78C, the self-cleavage was 0.42.

As to A18G U51A U69C, the self-cleavage was 1.21.

As to A18U U41A U51A A64U, the self-cleavage is 0.07.

A18G U41A U72C: the self-cleavage was 0.42.

For the variant A18U G24C U72A, the self-cleavage came out at 0.09.

A18U U66C U67A U72C U76A: the self-cleavage was found to be 0.17.

In the case of A18U U25C G30A, the self-cleavage worked out at 0.15.

G19U U51A U54G: the self-cleavage amounted to 0.13.

In the case of G19C U31A U41A, the self-cleavage was 0.26.

A18U A28G U41A: the self-cleavage is 0.06.

Turning to A18U U31C A45G U58G A75U U76C, the self-cleavage was 0.27.

For the variant A18U U43A U66C U67C, the self-cleavage was found to be 0.44.

On to A18U G24A U25C A47G U48C A57G, for which the self-cleavage was 0.03.

For A18U G24A C40U U74C, the self-cleavage turned out to be 0.21.

On to A18U C37U U48C G55A, for which the self-cleavage was 0.11.

A18U U41C U51A A64G U66C U78C: the self-cleavage turned out to be 0.23.

As for A20C U43C C79A, the self-cleavage amounted to 0.34.

For the variant A18U A45G C62U U72A U80C, the self-cleavage came out at 0.22.

As to G19C A21U G63C C71A, the self-cleavage was 0.03.

With A20G A28G A65G, the self-cleavage was determined as 0.09.

As for A18G U60C C68U U80G, the self-cleavage turned out to be 0.15.

Consider A18U A20G U74A, for which the self-cleavage came to 0.52.

A18U A28U U48C U54C G73C: the self-cleavage was 0.1.

A18U U31C G33A A45U U72G U78C: the self-cleavage worked out at 0.13.

G19C A28C C32A A35U U58C: the self-cleavage was 0.15.

In the case of A20G A21G U31C U41G U49C A75U U80C, the self-cleavage was found to be 0.59.

A18U U43C U72A U78C: the self-cleavage is 0.06.

Turning to A18U A45G A65G U66C U72A, the self-cleavage is 0.22.

Regarding A18U A20G U26C U54C U72C, the self-cleavage amounted to 0.08.

In the case of A18U U41C A57G U60C U69C, the self-cleavage worked out at 0.28.

Regarding A18U G19A A45G U69C, the self-cleavage turned out to be 0.12.

Take A20G A21G A45G A57G: the self-cleavage was determined as 0.08.

In the case of A18G U51A A64G U72C, the self-cleavage was 0.33.

For A18U U31A U67C U74A, the self-cleavage came out at 0.12.

Turning to A18U U25C G73A U76C, the self-cleavage is 0.42.

As for A18U A28G G33A A57U U67C, the self-cleavage worked out at 0.11.

Consider A18G U26C U54C U78C, for which the self-cleavage was 0.07.

On to A18G U31C U49C U58C, for which the self-cleavage turned out to be 0.07.

With A18U U26C U58C A64U U76C, the self-cleavage came out at 0.14.

As to G19U U41C G61A U66C C81U, the self-cleavage was 0.15.

For the variant A18G U41C A47G U48C, the self-cleavage worked out at 0.11.

Take A20C U26C U72C U76C: the self-cleavage stood at 0.35.

For G19U U54A G73A, the self-cleavage turned out to be 0.73.

A20C U31A U72C: the self-cleavage amounted to 0.1.

With A18U U26C G33A U41C C62G, the self-cleavage was found to be 0.11.

In the case of A18U C29A A64G, the self-cleavage worked out at 0.18.

For A18G U31A U41A U69A, the self-cleavage stood at 0.06.

Turning to A20G A21G U25C A64G U72G, the self-cleavage was determined as 0.03.

As for G19A U26C U80C, the self-cleavage came to 0.48.

For A18U U54A A56G U69C A75G, the self-cleavage amounted to 0.13.

Turning to G19U U25C A45U G46A C50A U69A, the self-cleavage worked out at 0.09.

As for G19A U25C A35G, the self-cleavage amounted to 0.16.

For A18G U26C U41C U51A, the self-cleavage was determined as 0.12.

For the variant A18U A28G C39U U49C, the self-cleavage was determined as 0.06.

With A18U G24C A28G G42A A45C U48A U69A, the self-cleavage amounted to 0.09.

Turning to A18U C39U U48C U49G, the self-cleavage is 0.08.
